Laboratory results from the BET-seq Pho4 binding data (Le et al. 2018).
The other results are listed elsewhere or left out. Values were computed here from the reads of four pooled replicates and scatter widely.

Each sequence was assayed against T1, Pho4 (S. cerevisiae) (UniProt P07270) (assay: relative binding free energy (BET-seq); higher = weaker binding). Conditions: reference: library average.
T1 sequence: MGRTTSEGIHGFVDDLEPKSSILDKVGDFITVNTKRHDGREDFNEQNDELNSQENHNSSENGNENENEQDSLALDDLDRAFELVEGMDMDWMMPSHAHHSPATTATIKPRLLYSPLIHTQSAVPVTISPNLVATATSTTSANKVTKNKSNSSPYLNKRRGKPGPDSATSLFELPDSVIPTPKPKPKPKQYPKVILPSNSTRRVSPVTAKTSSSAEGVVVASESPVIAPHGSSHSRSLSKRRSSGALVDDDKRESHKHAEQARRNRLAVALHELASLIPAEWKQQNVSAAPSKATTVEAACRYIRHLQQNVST

Relative binding free energy, 0.06 kcal/mol:
TGATACACGTGTAGGC
GGAGTCACGTGGGAGG
AGCGTCACGTGGTGAA
TAGCGCACGTGATTGG
GAGTGCACGTGTCTTA
TATGGCACGTGAGCAT
GTTGTCACGTGCTGTT
GGGGTCACGTGCGTCA
GGGACCACGTGTCGGG

Relative binding free energy, 0.5 kcal/mol:
TCGAACACGTGAGGTG

Relative binding free energy, -0.03 kcal/mol:
TTAGTCACGTGCCTGG
AAGTGCACGTGTCGTT
TAATGCACGTGTTTGA
AAGGACACGTGGTCGG

Relative binding free energy, -0.05 kcal/mol:
TATGGCACGTGTTATG
TTAATCACGTGGGGCA
TTTTGCACGTGCGGAT

Relative binding free energy, 0.17 kcal/mol:
ACTTTCACGTGGATGT
GATTGCACGTGTGCCG
ACGGTCACGTGAGTAG
TGCTTCACGTGTCGGG
TCGGCCACGTGTGATG

Relative binding free energy, 0.51 kcal/mol:
CATTTCACGTGAAGTA

Relative binding free energy, 0.37 kcal/mol:
GATTTCACGTGAAGTA
ATCTACACGTGAGTGG

Relative binding free energy, 0.26 kcal/mol:
CTGTTCACGTGATTAT
AATATCACGTGTTGTC
TTTTTCACGTGATAAG
CGTTTCACGTGGATCG
TGGAGCACGTGAAGGG

Relative binding free energy, 0.22 kcal/mol:
TAGATCACGTGTATCG
TGTCGCACGTGAGAGA
TTGGACACGTGATAAT
ATAATCACGTGTGCGT
TTCGTCACGTGATTAG
TGTATCACGTGTGCTA

Relative binding free energy, -0.16 kcal/mol:
AGAGCCACGTGCGGGT
AGGGTCACGTGCGGTA
GGGAGCACGTGTATCG

Relative binding free energy, 0.13 kcal/mol:
TTTTCCACGTGTAATA
TGTTACACGTGTAATA
GTTCACACGTGTGTTG
GGGACCACGTGGACGG
GTATGCACGTGTAAGT

Relative binding free energy, -0.33 kcal/mol:
TACTGCACGTGGGTTG

Relative binding free energy, 0.32 kcal/mol:
GGGTTCACGTGTATAT
TGCTTCACGTGATAGG
TTAGACACGTGAAAGT
TGGCACACGTGAATGT

Relative binding free energy, 0.07 kcal/mol:
CTTTTCACGTGTATTA
GTTAGCACGTGTGAGG
GGCGGCACGTGTGAGA
TTAGTCACGTGTTTTG

Relative binding free energy, 0.33 kcal/mol:
AGGTTCACGTGTGGAT
AGATTCACGTGTCAGT

Relative binding free energy, 0.08 kcal/mol:
CATTTCACGTGTTGGA
ATTGGCACGTGAACGT

Relative binding free energy, -0.09 kcal/mol:
ACGGCCACGTGTGGGG
TATTACACGTGTTTAA
GGTGGCACGTGTGTGC
AGGGGCACGTGACATG
GGCTGCACGTGGGGGC

Relative binding free energy, -0.04 kcal/mol:
ACTGTCACGTGGGCAG
AGTTCCACGTGGTGTA
TGGAGCACGTGCGGGG
TAGGGCACGTGTGAGT
TGCGCCACGTGTGAGT
ATTGGCACGTGTATAG
ACTGGCACGTGTCGTT
TATTGCACGTGTCTTA

Relative binding free energy, 0.11 kcal/mol:
CTTGCCACGTGAGGTT
AGTGGCACGTGTGACA

Relative binding free energy, -0.12 kcal/mol:
TAAGGCACGTGTTGGC

Relative binding free energy, -0.34 kcal/mol:
CTGCGCACGTGGTTGG

Relative binding free energy, -0.02 kcal/mol:
TGTACCACGTGGTTCG
TTGTGCACGTGGTTGC
TATACCACGTGTGTAT

Relative binding free energy, -0.24 kcal/mol:
AGATGCACGTGGGGGC
CGTGCCACGTGGGGTT

Relative binding free energy, -0.29 kcal/mol:
ACGGCCACGTGGGGGG
TTGGGCACGTGCTGGA

Relative binding free energy, 0.03 kcal/mol:
GTTTACACGTGGGATA
AGTCGCACGTGTGAGT
GGTTGCACGTGTTTTG
CTTATCACGTGTGTTA
GAGAGCACGTGATTGT
CGGGCCACGTGTCAGG
GTAGGCACGTGTTTAT
GGAAGCACGTGTAATG

Relative binding free energy, 0.24 kcal/mol:
TAAATCACGTGTAGTT
AAGGACACGTGAGAGG

Relative binding free energy, 0.14 kcal/mol:
TTGTGCACGTGAGAGT
CCGTTCACGTGGGGGG
CTTGACACGTGTGTTC
AGCGACACGTGTCGGT
TTTGACACGTGTTAAG

Relative binding free energy, 0.42 kcal/mol:
GTTTACACGTGAAGGC
GTTTTCACGTGCATAT

Relative binding free energy, 0.4 kcal/mol:
GAGTTCACGTGATCGG
GGTATCACGTGTAATC

Relative binding free energy, -0.13 kcal/mol:
TGCAGCACGTGTATAG
AGATGCACGTGATTTG
TATTGCACGTGTCAGG
TGCGTCACGTGGGTCG
AACGGCACGTGGGATG

Relative binding free energy, 0.35 kcal/mol:
GGTCTCACGTGTTTGA

Relative binding free energy, 0.39 kcal/mol:
GCGATCACGTGAGGTG

Relative binding free energy, -0.23 kcal/mol:
TTAGCCACGTGGGCGT

Relative binding free energy, -0.22 kcal/mol:
GGGGCCACGTGCGGGC

Relative binding free energy, -0.2 kcal/mol:
AGGTGCACGTGGGTCT

Relative binding free energy, 0.04 kcal/mol:
AGAGGCACGTGAATGG
GAGTGCACGTGTTCAT
CGGGGCACGTGTTGAT
GTGGTCACGTGCGTGT
TTGGACACGTGGTCTG
GAGTGCACGTGGAGCT

Relative binding free energy, 0.43 kcal/mol:
TCGTTCACGTGCTGTT

Relative binding free energy, -0.19 kcal/mol:
CTAGGCACGTGTGGTA
AGCGGCACGTGGGTTA
GCGTGCACGTGGCTGT
AAATGCACGTGGGGTC
TAATGCACGTGGTGCA

Relative binding free energy, -0.17 kcal/mol:
TGACGCACGTGGGCTT
ATGGCCACGTGGGGGA
GGGAGCACGTGCAGGT
TGTGCCACGTGACGGG

Relative binding free energy, 0.47 kcal/mol:
CTGTTCACGTGATTTG

Relative binding free energy, 0 kcal/mol:
ATTAGCACGTGGAAGG
AGCGTCACGTGGGCGA
TAGGCCACGTGTGATT
GTATGCACGTGTTCGG

Relative binding free energy, -0.15 kcal/mol:
TTGCCCACGTGTGGTG

Relative binding free energy, 0.3 kcal/mol:
GTCTTCACGTGGAGTT
GGATTCACGTGATGCG
GTGGTCACGTGATGTT

Relative binding free energy, -0.18 kcal/mol:
TCGAGCACGTGGGTGT

Relative binding free energy, 0.2 kcal/mol:
TGAGTCACGTGAGTAA
CTGTACACGTGGATGT
TATGACACGTGAATTG
TCGTTCACGTGCGGTA
TGTTCCACGTGTGGGT

Relative binding free energy, 0.21 kcal/mol:
CTGGTCACGTGTTGAA
TTGTTCACGTGGGTTG

Relative binding free energy, 0.02 kcal/mol:
ATTTGCACGTGTGACG
AGTATCACGTGGGGGT
CATTGCACGTGGTCGT
AAGGACACGTGTGGAT
TCATGCACGTGTGGGT
TTTATCACGTGCGTTG

Relative binding free energy, -0.08 kcal/mol:
TGTGGCACGTGCGTGG
GTGGACACGTGGCGGC
GCAGGCACGTGGGATG
AGCGGCACGTGTTGGG
GTGTCCACGTGGAGGT
AAATGCACGTGGGAGT
TTAAGCACGTGCTGGC
TCTTGCACGTGGGTTG

Relative binding free energy, -0.1 kcal/mol:
GGGGCCACGTGGTCGT
GGGTGCACGTGCTCGG
ATTTGCACGTGGGCTC
CGGGGCACGTGTTGAG
AAGGCCACGTGTAGGT
ATATGCACGTGATATG
TAAAGCACGTGTCTGT

Relative binding free energy, -0.07 kcal/mol:
GTAAGCACGTGTTGGA
TTCGCCACGTGGGGGA
AGCTGCACGTGTGGTG
TTTTGCACGTGGGAGT
AGTGGCACGTGTATCT

Relative binding free energy, 0.15 kcal/mol:
GTTTACACGTGTCTGG
GGAGGCACGTGAAATG
AGGTCCACGTGTTGAA
AAAGTCACGTGGACGG
GATATCACGTGGTAAT
AGTCTCACGTGGAGTT

Relative binding free energy, 0.34 kcal/mol:
CAGGTCACGTGAGGTA

Relative binding free energy, 0.19 kcal/mol:
ATTTACACGTGTTAGA
TGGGTCACGTGTGGGG
GGTTACACGTGCGGGT

Relative binding free energy, 0.12 kcal/mol:
TTAGACACGTGCTGCT
TGTAGCACGTGTTACT
TGACTCACGTGCGGTG
TTTATCACGTGTTGCA

Relative binding free energy, 0.28 kcal/mol:
GGTTTCACGTGCTATT

Relative binding free energy, 0.01 kcal/mol:
GTAATCACGTGTGCTG
TGTAGCACGTGTATAT
GTGTACACGTGGTTAG

Relative binding free energy, 0.27 kcal/mol:
AAGTACACGTGAGTGT
GTATTCACGTGGACTG

Relative binding free energy, 0.1 kcal/mol:
TTGGGCACGTGATAGG
ATAAACACGTGATTGG
TTTGTCACGTGTGCCT
TCTGTCACGTGGAGCT
TTTTGCACGTGTGCGG
CAAGACACGTGGAGGG
TTTTACACGTGTCTTG
CGTCGCACGTGAGTGT

Relative binding free energy, 0.16 kcal/mol:
GGTAGCACGTGAGGAA
TTTTGCACGTGATGTC
GTTTACACGTGTAGAG

Relative binding free energy, -0.06 kcal/mol:
GGTGCCACGTGGTTGT
GTTGGCACGTGCGGCT

Relative binding free energy, -0.11 kcal/mol:
TGTAGCACGTGTGCGA
GGAAGCACGTGTTGTT
CTAGCCACGTGGTGGT
TGTGCCACGTGTATGC

Relative binding free energy, 0.25 kcal/mol:
TTCCTCACGTGTTAGT
AGAAGCACGTGTAGAT
TGAATCACGTGTTTAT
TATAGCACGTGAGCTG

Relative binding free energy, -0.14 kcal/mol:
GTGTGCACGTGCTTGA
ACGGGCACGTGTGGCG

Relative binding free energy, 0.23 kcal/mol:
GGCAGCACGTGAGATG
TTTCTCACGTGCTGGA
TTTGGCACGTGAGGAG
GGGGACACGTGATAGG
CATGTCACGTGAGTAG
AGGAACACGTGTAGTT

Relative binding free energy, 0.05 kcal/mol:
TGTTACACGTGGGGCC
TCGTACACGTGTAGGT
ATGTACACGTGTATCG

Relative binding free energy, 0.09 kcal/mol:
ATCGGCACGTGTATGT
ATGAACACGTGTATGT

Relative binding free energy, 0.18 kcal/mol:
TGGGTCACGTGACGTC
TAAGTCACGTGATATA

Relative binding free energy, -0.01 kcal/mol:
TGCTGCACGTGTGGAT
TTTGGCACGTGGAGAA
GAAGACACGTGGGTCG
GTGAGCACGTGTCGGT
GGGGTCACGTGGGCCC
